In paper PMC4891693, “Discovery of prenylated flavonoids with dual activity against influenza virus and Streptococcus pneumoniae” (Scientific Reports, 2016):
Values joined by “and” are separate entries in the source; they are usually repeats but may differ in a detail not shown here. Equal values may be shown once. Read-outs that look alike come from different tables or passages of the source.

Assays:
[1] = biological target: recombinant NanA of pneumococcal strain DSM20566 (rNanA) (Streptococcus pneumoniae, UniProt P62576); test: biochemical; format: biochemical; settings: pure compounds, MUNANA, pH 6.0, highest tested 100 μM
Sequence of recombinant NanA of pneumococcal strain DSM20566 (rNanA) (P62576 54-1006): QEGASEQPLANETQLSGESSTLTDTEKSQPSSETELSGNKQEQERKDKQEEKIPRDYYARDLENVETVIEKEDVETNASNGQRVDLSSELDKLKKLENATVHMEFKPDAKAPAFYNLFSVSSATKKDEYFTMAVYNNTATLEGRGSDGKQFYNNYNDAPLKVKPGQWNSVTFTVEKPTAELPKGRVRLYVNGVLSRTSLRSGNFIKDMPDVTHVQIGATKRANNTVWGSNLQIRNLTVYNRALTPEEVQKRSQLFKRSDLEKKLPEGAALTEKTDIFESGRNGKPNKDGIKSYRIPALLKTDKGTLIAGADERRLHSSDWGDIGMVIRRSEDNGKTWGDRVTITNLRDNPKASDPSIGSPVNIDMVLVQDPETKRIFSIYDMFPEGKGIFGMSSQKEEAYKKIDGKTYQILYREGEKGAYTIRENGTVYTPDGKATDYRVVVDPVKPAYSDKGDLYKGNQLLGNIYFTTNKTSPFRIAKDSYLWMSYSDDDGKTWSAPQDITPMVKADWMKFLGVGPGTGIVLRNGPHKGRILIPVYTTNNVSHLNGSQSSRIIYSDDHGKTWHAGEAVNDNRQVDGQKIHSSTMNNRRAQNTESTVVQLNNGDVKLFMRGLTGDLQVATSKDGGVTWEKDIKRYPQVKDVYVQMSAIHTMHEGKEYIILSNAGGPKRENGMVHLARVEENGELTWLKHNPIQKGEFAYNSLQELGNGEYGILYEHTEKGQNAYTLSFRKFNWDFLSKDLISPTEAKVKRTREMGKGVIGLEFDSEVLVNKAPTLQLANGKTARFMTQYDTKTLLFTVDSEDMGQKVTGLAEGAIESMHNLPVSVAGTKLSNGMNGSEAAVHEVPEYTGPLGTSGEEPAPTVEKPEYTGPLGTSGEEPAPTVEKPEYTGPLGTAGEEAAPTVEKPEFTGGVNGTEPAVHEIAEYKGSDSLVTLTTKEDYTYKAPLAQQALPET

[2] = biological target: NA of influenza virus A/Jena/8178/2009 (8178/09; A(H1N1)pdm09) (Influenza A virus, UniProt A0A088CA11); format: biochemical; settings: pH 6; read-out: IC50 in FL assay against IAV 8178/09
[3] = IC50 in FL assay against S. pneumoniae rNanA
[4] = read-out: IC50 in FL assay against S. pneumoniae rNanA

Work on `COc1ccc(C2CC(=O)c3c(O)cc(O)cc3O2)cc1O` (racemic) [Compound 10, (±)-hesperetin] yielded an IC50 [1, 3] of 32.1 ± 5.66 µM.

`O=C1CC(c2ccc(O)c(O)c2)Oc2cc(O)cc(O)c21` (racemic) [Compound 11, (±)-eriodictyol] gave an IC50 [1, 3] of 11.6 ± 4.45 µM.

`COc1cc([C@H]2Oc3cc([C@H]4Oc5cc(O)cc(O)c5C(=O)[C@@H]4O)ccc3O[C@@H]2CO)ccc1O` (racemic) [Compound 17, (±)-silybin] gave an IC50 [1, 3] of 24.6 ± 4.5 µM.

`CC(C)=CCc1cc(C2CC(=O)c3ccc(O)cc3O2)ccc1O` (racemic) [Compound 18, (±)-abyssinone II] showed an IC50 [1, 3] of 68.4 ± 8.82 µM.

`CC(C)=CCC12Oc3cc(O)c(C4=CC5(C)CC(C4)c4ccc(O)cc4O5)c(O)c3C(=O)C1(O)Oc1cc(O)ccc12` (centres unmarked) [Compound 1, sanggenon B] gave an IC50 [1, 3] of 15 ± 3.48 µM.

With `CC(C)=CC[C@]12Oc3cc(O)c([C@H]4C=C(C)C[C@H](c5ccc(O)cc5O)[C@H]4C(=O)c4ccc(O)cc4O)c(O)c3C(=O)[C@@]1(O)Oc1cc(O)ccc12` [Compound 2, sanggenon C] the IC50 [1, 3] was 11.3 ± 1.27 µM.

`CC(C)=CCC/C(C)=C/Cc1c(O)ccc([C@@H]2CC(=O)c3c(O)cc(O)cc3O2)c1O` [Compound 5, sanggenol A] was tested, and the IC50 [1, 3] was 6.2 µM and 6.22 µM.

In the case of `CC1=C[C@H](c2c(O)ccc([C@@H]3CC(=O)c4c(O)cc(O)cc4O3)c2O)[C@@H](C(=O)c2ccc(O)cc2O)[C@H](c2ccc(O)cc2O)C1` [Compound 6, kuwanon L], the IC50 [1, 3] is reported as 8.3 µM and 8.34 µM.

`COc1c(O)cc2c(c1O)C(=O)CC(c1ccccc1)O2` (centres unmarked) [Compound 8, 2,3-dihydro-5,7-dihydroxy-6-methoxy-2-phenyl-4H-1-benzopyran-4-one] showed an IC50 [1, 3] of 24.5 ± 0.84 µM.

With `O=C1CC(c2ccc(O)cc2O)Oc2cc(O)cc(O)c21` (centres unmarked) [Compound 12, 2',4',5,7-tetrahydroxyflavanone] the IC50 [1, 3] was 11.5 ± 1.96 µM.

`O=c1cc(-c2ccc(O)c(O)c2O)oc2cc(O)cc(O)c12` [Compound 14, 2',3',4',5,7-pentahydroxyflavone] was tested, and the IC50 [1, 3] was 13.8 ± 9.71 µM.

For `O=c1cc(-c2ccc(O)c(O)c2)oc2cc(O)cc(O)c12` [Compound 15, luteolin], the “IC50 in FL assay against S. pneumoniae rNanA” value [1] was “inactive”.

In the case of `O=c1c(O)c(-c2ccc(O)cc2O)oc2cc(O)cc(O)c12` [Compound 16, morin], the IC50 [1, 3] is reported as 20.3 ± 1.7 µM.

With `COc1ccc(C2CC(=O)c3c(cc(O)c(CC=C(C)C)c3O)O2)cc1` (centres unmarked) [Compound 19] the IC50 [1, 3] was 9.29 ± 1.49 µM.

Work on `CC(C)=CCc1cc(C2CC(=O)c3c(O)cc(O)cc3O2)ccc1O` (centres unmarked) [Compound 20, 4',5,7-trihydroxy-3'-prenylflavanone] yielded an IC50 [1, 3] of 11.1 ± 4.63 µM.

With `COc1cc(C2CC(=O)c3c(O)cc(O)cc3O2)cc(CC=C(C)C)c1O` (centres unmarked) [Compound 21, 2,3-dihydro-5,7-dihydroxy-2-[4-hydroxy-3-methoxy-5-(3-methyl-2-butenyl)phenyl]-4H-1-benzopyran-4-one] the IC50 [1, 3] was 15 ± 5.5 µM.

Compound `CC(C)=CCC/C(C)=C/Cc1c(O)cc2c(c1O)C(=O)[C@H](O)[C@@H](c1ccc(O)cc1)O2` [Compound 26, bonanniol A] has an IC50 [1, 3] of 12.6 ± 1.89 µM.

In the case of `COc1c(CC=C(C)C)cc([C@@H]2CC(=O)c3c(O)cc(O)cc3O2)cc1CC=C(C)C` [Compound 27, abyssinone-V 4'-methyl ether], the IC50 [1, 3] is reported as 2.18 ± 0.45 µM.

`CC(C)=CCc1c(O)c(CC=C(C)C)c2c(c1O)C(=O)C[C@@H](c1ccc(O)cc1)O2` [Compound 28, 6,8-diprenylnaringenin] gave an IC50 [1, 3] of 10.3 ± 2.57 µM.

For `CC(C)=CCc1c(O)c(CC=C(C)C)c2c(c1O)C(=O)CC(c1cc(O)cc(O)c1)O2` (centres unmarked) [Compound 29, 2-(3,5-dihydroxyphenyl)-2,3-dihydro-5,7-dihydroxy-6,8-bis(3-methyl-2-buten-1-yl)-4H-1-benzopyran-4-one], the IC50 [1, 3] was 24.5 ± 3.25 µM.

In the case of `CC(C)=CCc1c(O)c(CC=C(C)C)c2occ(-c3ccc(O)cc3)c(=O)c2c1O` [Compound 30, 6,8-diprenylgenistein], the IC50 [1, 3] is reported as 10 µM.

Compound `CC(C)=CCc1c(O)c(CC=C(C)C)c2occ(-c3ccc(O)c(O)c3)c(=O)c2c1O` [Compound 31, 6,8-diprenylorobol] has an IC50 [1, 3] of 8 ± 2.58 µM.

Compound `CC(C)=CCc1c(O)c(CC=C(C)C)c2c(c1O)C(=O)C(c1ccc(O)cc1O)CO2` (centres unmarked) [Compound 32, orientanol E] has an IC50 [1, 3] of 15.4 ± 9.71 µM.

`CC(C)=CCc1c(O)cc(CCc2ccccc2)c(CC=C(C)C)c1O` [Compound 33, 2,4-bis(3-methyl-2-buten-1-yl)-5-(2-phenylethyl)-1,3-benzenediol] was tested, and the IC50 [1, 3] was 2.6 ± 1.2 µM.

Work on `CCC(CC)O[C@@H]1C=C(C(=O)O)C[C@H](N)[C@H]1NC(C)=O` [Oseltamivir carboxylate GS4071, reference compound] yielded an IC50 [2] of 0.004 ± 0.001 µM and an IC50 [1, 4] of 6.98 ± 2.44 µM.

sanggenon D [Compound 3] was tested, and the IC50 [1, 4] was 3.15 ± 1.01 µM.

In the case of sanggenon G [Compound 4], the IC50 [2] is reported as 30.9 ± 6.46 µM and the IC50 [1, 4] is reported as 2.9 µM and 2.91 µM.
